In article PMC4336329 (PLoS ONE, 2015):
About 2,200 (0.71%) of roughly 310,000 compounds showed an effect of 50% or more. Effects have a minus sign here. The list shows a part of the results.

What follows are compounds tested against human ether-à-go-go-related gene (hERG) potassium channel (human, UniProt Q12809) (assay: primary screen, population patch clamp on CHO cells stably expressing hERG).
Sequence of human ether-à-go-go-related gene (hERG) potassium channel (Q12809 whole entry, looked up): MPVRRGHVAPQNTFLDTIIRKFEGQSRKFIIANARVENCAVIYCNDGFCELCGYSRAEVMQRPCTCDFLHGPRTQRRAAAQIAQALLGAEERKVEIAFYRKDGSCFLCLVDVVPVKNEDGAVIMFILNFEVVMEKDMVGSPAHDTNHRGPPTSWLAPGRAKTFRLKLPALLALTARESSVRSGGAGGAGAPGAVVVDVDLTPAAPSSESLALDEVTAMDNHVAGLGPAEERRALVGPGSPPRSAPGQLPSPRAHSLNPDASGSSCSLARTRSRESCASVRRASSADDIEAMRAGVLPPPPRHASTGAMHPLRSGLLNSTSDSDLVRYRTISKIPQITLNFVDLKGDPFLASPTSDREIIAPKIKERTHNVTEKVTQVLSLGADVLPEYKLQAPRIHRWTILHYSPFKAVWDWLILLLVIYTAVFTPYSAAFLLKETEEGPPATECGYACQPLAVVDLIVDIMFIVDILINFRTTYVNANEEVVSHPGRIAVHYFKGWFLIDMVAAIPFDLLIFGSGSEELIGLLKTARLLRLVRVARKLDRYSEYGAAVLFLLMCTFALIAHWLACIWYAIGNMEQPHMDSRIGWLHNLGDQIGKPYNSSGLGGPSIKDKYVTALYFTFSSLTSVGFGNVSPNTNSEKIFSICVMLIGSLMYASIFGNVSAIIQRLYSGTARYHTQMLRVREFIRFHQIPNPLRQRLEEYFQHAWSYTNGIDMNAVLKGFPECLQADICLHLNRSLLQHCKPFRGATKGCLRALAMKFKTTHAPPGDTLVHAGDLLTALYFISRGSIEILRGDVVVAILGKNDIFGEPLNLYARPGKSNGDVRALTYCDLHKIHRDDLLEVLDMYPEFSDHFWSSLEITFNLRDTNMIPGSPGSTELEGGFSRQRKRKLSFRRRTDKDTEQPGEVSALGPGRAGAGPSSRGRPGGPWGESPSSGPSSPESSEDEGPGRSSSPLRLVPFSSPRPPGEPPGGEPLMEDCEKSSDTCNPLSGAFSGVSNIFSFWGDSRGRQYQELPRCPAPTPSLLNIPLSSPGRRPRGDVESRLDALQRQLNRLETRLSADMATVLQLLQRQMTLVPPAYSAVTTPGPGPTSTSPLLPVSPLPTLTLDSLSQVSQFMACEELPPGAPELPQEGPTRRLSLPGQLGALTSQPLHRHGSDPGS

SMILES	hERG current change (%, negative = inhibition) at 1uM
CN(C)CCNC(=O)CCCNC(=O)Cn1cnc2sc3c(c2c1=O)CCCC3	-0.494%
CC(C)(C)C1CCC(C(=O)Nc2nccs2)CC1 (centres unmarked)	10.1%
COc1cccc(/C=C/C(=O)Nc2ccc3c(c2)OCCO3)c1OC	15.5%
Cc1cccc(N/N=C/c2ccc(O)c(O)c2O)c1	8.98%
CC(=O)N(Cc1ccccc1)Cc1cn(CCC#N)nc1-c1cccc([N+](=O)[O-])c1	1.58%
O=C(NCc1ccc(F)cc1)C(c1ccc(F)cc1)N(C(=O)c1csnn1)C1CC1 (centres unmarked)	12.9%
CCN(c1cccc(C)c1)S(=O)(=O)c1nnc(NC(=O)c2ccco2)s1	2.7%
CCOc1ncccc1C(=O)Nc1ccccc1F	8.01%
Cc1ccc2oc(C(=O)N(C)CCC(O)c3ccccc3)c(C)c2c1 (centres unmarked)	14.4%
O=c1oc(-c2ccccc2)nc2c1cnn2-c1ccccc1	9.63%
CCOC(=O)[C@H]1[C@H]2COc3cc(OC)ccc3[C@@H]2N2C(=O)CN(CCc3c[nH]c4ccccc34)C(=O)[C@@]12C	12.7%
Cc1nnc(SCC(=O)Nc2ccccc2F)n(N)c1=O	6.24%
CSc1ccccc1C(=O)NC1CCCN(c2ccc(C(F)(F)F)cn2)C1 (centres unmarked)	6.58%
Cn1cnnc1SCC(=O)Nc1ccccc1C(=O)NC1CCCC1	4.57%
OCCSc1nc2ccccc2n1CCOc1ccccc1	14.8%
Cc1cccn2c(=O)c(/C=C(\C#N)C(=O)NCc3ccco3)c(N3CCCCC3)nc12	-10.2%
Cc1ccc(S(=O)(=O)N2CCCCC2)cc1NC(=O)c1cc2ccccc2o1	12.2%
Cc1ccc(-n2c(CNc3ccc(F)cc3)nnc2SCC(=O)NCc2ccco2)cc1	2.89%
CC(=O)N1CCc2cc(S(=O)(=O)NC(CC(C)C)C(=O)N3CCCC3)ccc21 (centres unmarked)	13.1%
O=C(OCC(=O)N1CCCC1)c1cc([N+](=O)[O-])ccc1Cl	12.1%
O=C(Nc1ccn(Cc2c(F)c(F)cc(F)c2F)n1)c1ccc(COc2cc(Cl)ccc2Cl)o1	2.31%
COCCCNC(=O)COc1ccc(Cl)c(C)c1	-0.487%

SMILES	hERG current change (%, negative = inhibition) at 1uM
O=C(NCCS(=O)(=O)N1CCN(c2ccccc2)CC1)C1CC(=O)N(c2ccc(F)cc2)C1 (centres unmarked)	-0.544%
O=C(Nc1ccc(C(=O)N2CCCC2)cc1)c1ccc2c(c1)OCO2	1.71%
CN(Cc1ccccc1)C(=O)c1nc2ccccn2c1CNCCCOc1cccnc1	-29.5%
Cn1c(=O)c2c(nc(NCCNC(=O)c3ccco3)n2Cc2ccccc2F)n(C)c1=O	3.9%
COc1ccc(NC(=O)C2CCN(S(=O)(=O)c3ccc4c(c3)NC(=O)CO4)CC2)cc1	15%
COc1ccccc1NC(=O)/C=C1\SCC(=O)N1C	2.4%
CCCN(CC(=O)Nc1cc(Cl)ccc1Cl)C(=O)CN1C(=O)C2CCCCC2C1=O (centres unmarked)	-9.8%
COc1ccc(Cn2cc(F)c(=O)n(C)c2=O)cc1[N+](=O)[O-]	3.08%
Cc1nn(Cc2ccccc2)c(C)c1NC(=O)CCCn1nc([N+](=O)[O-])cc1C	11.9%
COc1ccc(C(=O)N/C(=C\c2cccc3ccccc23)C(=O)NCCc2c[nH]c3ccccc23)cc1OC	-0.582%
CCOc1nc(-c2ccccc2)ccc1-c1noc(COC)n1	16%
COc1ccccc1C(=O)NC(CCSC)C(=O)NCc1ccccn1 (centres unmarked)	-6.78%
COc1ccc(Cl)cc1C(=O)Nc1cccc(-c2ccc3nncn3n2)c1	3.92%
CC1CC(=O)C2=C(C1)Nc1ccccc1N(C(=O)COc1ccccc1)C2c1ccco1 (centres unmarked)	-1.53%
O=C(O)c1cc(/C=C/c2ccc(N3CCOCC3)cc2)nc2ccccc12	1.41%
Cc1ccc(NC(=O)/C=C/c2ccc3c(c2)OCO3)nc1	3.7%
N#Cc1ccc(OCC(=O)Nc2cc(S(=O)(=O)N3CCCCC3)ccc2N2CCCCC2)cc1	-5.18%
CCS(=O)(=O)N1CCN(S(=O)(=O)c2ccc3ccccc3c2)CC1	13%
O=C(NCc1ccccc1)C(=O)NCC1OCCN1C(=O)c1cccs1 (centres unmarked)	-54.6%
CC1(C)CC(NC(=S)NCc2ccco2)CC(C)(C)N1	6.74%
CC(=O)Nc1ccc2sc(C)nc2c1	8.83%
COc1ccccc1/C=N/NC(=S)Nc1cccnc1	11%
